Source: article PMC8441438, “Dynamic regulation of mitotic ubiquitin ligase APC/C by coordinated Plx1 kinase and PP2A phosphatase action on a flexible Apc1 loop” (The EMBO Journal, 2021)
These are yes or no findings as the source states them, for the method shown. For some of these results: In cells and extracts the contact can be indirect. Some results given as binding are weak or reduced against the parent protein; the word gives no strength. For some of these results: Tags and fused reporters may be left off the sequences shown.

T1: MBP-fused Apc1-loop^500 E562A (Xenopus tropicalis) (UniProt Q08D52)
T1 sequence: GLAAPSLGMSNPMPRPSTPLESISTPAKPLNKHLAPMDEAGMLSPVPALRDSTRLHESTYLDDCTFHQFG

T2: MBP-fused Apc1-loop^500 2A (T532A/T539A) (Xenopus tropicalis) (UniProt Q08D52)
T2 sequence: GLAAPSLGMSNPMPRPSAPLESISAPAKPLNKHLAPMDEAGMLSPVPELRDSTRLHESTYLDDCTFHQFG

T3: MBP-fused Apc1-loop^500 WT fragment (Xenopus tropicalis, UniProt Q08D52 515-584)
T3 construct: Apc1 (APC/C subunit 1), Xenopus tropicalis, loop^500, residues 515-584; Added unphosphorylated; becomes phosphorylated at CDK sites T532, T539 and S558 when incubated in anaphase egg extracts; MBP is PreScission-cleavable and His6 TEV-cleavable; also called MBP-Apc1-loop^500; CDK^- Apc1-loop^500; source: recombinant, purified as described previously (Fujimitsu & Yamano, 2020); not shown: MBP, …
T3 sequence (looked up): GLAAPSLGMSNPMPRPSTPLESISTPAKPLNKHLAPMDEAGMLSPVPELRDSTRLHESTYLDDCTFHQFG

T4: MBP-fused Apc1-loop^500 T532A (Xenopus tropicalis) (UniProt Q08D52)
T4 sequence: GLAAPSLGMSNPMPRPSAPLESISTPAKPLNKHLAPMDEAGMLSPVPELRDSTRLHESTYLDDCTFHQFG

T5: Apc1-loop^500 S566A/T567A (Xenopus tropicalis) (UniProt Q08D52)
T5 sequence: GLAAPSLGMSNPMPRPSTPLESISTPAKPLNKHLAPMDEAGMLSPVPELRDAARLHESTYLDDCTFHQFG


Tests used:
[1] = molecular target: T1, MBP-fused Apc1-loop^500 E562A (Xenopus tropicalis); assay: pull-down; MBP-fused Apc1-loop^500 fragments on amylose beads incubated in Xenopus egg anaphase extracts (interphase extracts with non-degradable cyclin B∆167) at 23°C for 60 min; washed with XB^CSF buffer and XB^CSF with 0.01% NP-40; endogenous Plx1 detected by immunoblotting; only the target purified
[2] = molecular target: T2, MBP-fused Apc1-loop^500 2A (T532A/T539A) (Xenopus tropicalis); assay: as above
[3] = molecular target: T3, MBP-fused Apc1-loop^500 WT fragment; assay: as above
[4] = molecular target: T4, MBP-fused Apc1-loop^500 T532A (Xenopus tropicalis); assay: as above
[5] = molecular target: T5, Apc1-loop^500 S566A/T567A (Xenopus tropicalis); assay: as above
[6] = molecular target: T3, MBP-fused Apc1-loop^500 WT fragment; assay: condition: only in interphase extracts (no non-degradable cyclin B); pull-down; as a1 but in interphase extracts without non-degradable cyclin B (Appendix Fig S1); only the target purified
[7] = molecular target: T2, MBP-fused Apc1-loop^500 2A (T532A/T539A) (Xenopus tropicalis); assay: pull-down; MBP-fused Apc1-loop^500 on amylose beads incubated in anaphase extracts at 23°C for 1 h, then purified Plx1-PBD (10 µg or indicated amounts) added to the extract for 15 min; bound proteins by SDS-PAGE and Coomassie staining; both purified

| binding [1] | binding [2] | binding [3] | binding [4] | binding [5] | binding [6] | binding [7] | Molecule |
| --- | --- | --- | --- | --- | --- | --- | --- |
| binds | binds weakly | binds | binds | binds | no binding | – | Plx1 (polo-like kinase homolog in Xenopus laevis), endogenous (from UniProt P70032 1-598) (enzyme) |
| – | – | – | – | – | – | no binding | Plx1-PBD WT (polo-box domain of Plx1) (domain or fragment, Xenopus laevis, UniProt P70032 362-598, looked up, Plx1, Xenopus laevis, polo-box domain, amino acids 362-598; 3xFlag is PreScission-cleavable, His6 TEV-cleavable; cleavage is not reported; also called WT Plx1-PBD; source: E. coli BL21-CodonPlus (DE3), purified (Ni-NTA agarose)) EPADCYLSEMLQQLTCLNAVKPSERALIRQEEAEDPASIPIFWISKWVDYSDKYGLGYQLCDNSVGVLFNDSTRLIMYNDGDSLQYIERNNTESYLNVRSYPTTLTKKITLLKYFRNYMSEHLLKAGANTTPREGDELARLPFLRTWFRTRSAIILHLSNGTVQINFFQDHTKIILCPLMAAVSYIDEKREFRTYKLSLIQEFGCCKELASRLRYARTMVEKLQSSKSAVAHVKASA |
